Laboratory results as given in PubChem BioAssay (NCI).
Several values for one entry are separate records, joined by “and”; a condition that tells them apart may be missing. Equal values may be shown once.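 Five concentrations, 48 hours, 96-well plates. The concentration for 50% growth inhibition is given as GI50. TGI is the concentration that stops growth completely.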

Tested on: NCI-H322M lung
Experiment: inhibition of tumour cell growth, NCI panel, 48 h

Row | Compound | TGI | GI50
1 | Cn1c(-c2cccs2)cc(-c2ccsc2)c1-c1ccsc1 | > 100 µM | –
2 | CCCCOc1nc2ccccc2cc1C1CNC(=O)c2ccccc2N1 (centres undefined) | 39.3 µM | 4.89 µM
3 | COc1ccc(Cn2nc(OCc3ccccc3)c3cc([N+](=O)[O-])ccc32)cc1 | > 100 µM | –
4 | NC(=O)c1nnc2c(F)cccc2c1N | > 100 µM | –
5 | CSC(=N/N=C(\C)c1ccc(S(=O)(=O)N(C)c2ccccc2)cc1)SC | > 100 µM | –
6 | COc1ccc(-c2nc3ncccn3c2-c2ccc(S(C)(=O)=O)cc2)cc1 | > 100 µM | –
7 | N#CC(NNC(=O)c1c(Cl)c(Cl)c(Cl)c(Cl)c1-c1nc2ccc(C(=O)c3ccccc3)cc2[nH]1)c1cccc(Oc2ccccc2)c1 (centres undefined) | > 100 µM | –
8 | C/C(=C\COc1ccc2ccc(=O)oc2c1)CCC(=O)C(C)(C)O | > 100 µM | –
9 | O=C1CCc2c(sc3ncnc(Nc4cccc(Br)c4)c23)C1 | 20 µM | –
10 | COc1cccc(C2N3CCCCC3[C@@H]3c4[nH]c5ccccc5c4CCN23)c1OC (some centres undefined) | 29.1 µM | –
11 | CC(=O)c1nc(C#N)c(N)o1 | > 100 µM | –
12 | COC(=O)C1=C(c2cc(OC)c(OC)c(OC)c2)OC(c2cc(OC)c(OC)c(OC)c2)C1 (centres undefined) | > 100 µM | –
13 | COc1cc2c3c4[n+](cc2c(OC)c1OC)CCC4CCC3 (centres undefined) | > 100 µM | –
14 | COc1ccc2c(-c3csc(-c4c[nH]c5ccccc45)n3)c[nH]c2c1 | > 45.6 µM | –
15 | CCOC(=O)CCC(NC(=O)c1ccc(Nc2nc3cc(N)cc(N)c3nc2-c2ccccc2)cc1)C(=O)OCC (centres undefined) | > 100 µM | > 64.8 µM
16 | CC(C)C(NCc1c2ccccc2nc2ccccc12)C(=O)O (centres undefined) | > 100 µM | –
17 | O=C(/C=C(/C=C/c1csc2ccccc12)OB(F)F)/C=C/c1csc2ccccc12 | > 50 µM | > 50 µM
18 | c1ccc2c(c1)[C@@H]1O[C@@H]1[C@@]13O[C@@]21[C@H]1O[C@H]1c1ccccc13 | 35.6 µM | –

Row | Compound | TGI | GI50
19 | COc1cc(C2CC(c3cc(Cl)c(C)cc3O)=NN2c2ccc(S(N)(=O)=O)cc2)cc(OC)c1OC (centres undefined) | 12.6 µM | 2.86 µM
20 | CCN(Cc1cccc(C)c1)c1ccc(CO)c(Cl)c1 | 24.2 µM | 11.1 µM
21 | S=C1NNC(=S)NN1 | > 1 µM | –
22 | CC(=O)[O-].CC(=O)[O-].CC(=O)[O-].CC(=O)[O-].CO.CO.CO.[Rh+2].[Rh+2].c1ccc(-c2ccccn2)nc1 | > 100 µM | > 100 µM
23 | O=C(Nc1ccccc1C(=O)O)C(=Cc1ccccc1O)NC(=O)c1ccccc1 | > 100 µM | –
24 | O=C(O)CCC(NC(=O)/C(=C/c1ccccc1)NC(=O)c1ccccc1)C(=O)O (centres undefined) | > 100 µM | –
25 | COc1ccc(OC)c(/C=C/C(=O)c2ccc(SC)cc2)c1 | 44 µM | 16.4 µM
26 | Cn1ccnc1C(=O)/C=C/c1ccc(CC(=O)Nc2cc(F)c(F)c(F)c2)cc1 | 5.89 µM | 1.84 µM
27 | COC(=O)C12CC(NC(=O)c3csc([C@@H](C[C@H](C(C)C)N(C)C(=O)[C@@H](NC(=O)[C@H]4CCCCN4C)C(C)C)OC(C)=O)n3)(C1)C2 | > 33.3 µM | 0.0306 µM and 0.00333 µM
28 | COc1ccc2c(c1)/C(=N/OC(C)=O)c1c-2c(Nc2ccc(/C(C)=N/OC(C)=O)cc2)nc2ccccc12 | > 100 µM | 42.4 µM
29 | N#CC(N)(C(=O)C(=O)NCCCNC(=O)C(=O)C(N)(C#N)c1ccc(Cl)cc1)c1ccc(Cl)cc1 (centres undefined) | > 100 µM | –
30 | CC(=O)OC1COC(n2c(N)c(C#N)c(-c3ccccc3)c(C#N)c2=S)C(OC(C)=O)C1OC(C)=O (centres undefined) | > 100 µM | –
31 | CCC1C(=O)OCc2c1cc1n(c2=O)Cc2ccccc2-1 (centres undefined) | > 100 µM | –
32 | COC(=O)CCCCCCCCC(=O)c1c(C)[nH]c(/C=C2\N=C(c3ccc[nH]3)C=C2OC)c1C | > 100 µM | > 41.3 µM
33 | CCc1cc(Nc2nccc(-c3c(-c4ccc(OC)c(C(=O)Nc5c(F)cccc5F)c4)nc4ccccn34)n2)c(OC)cc1N1CCC(N2CCN(S(C)(=O)=O)CC2)CC1 | > 100 µM | > 100 µM
34 | COc1ccc(C(=O)C(CN(C)C)c2ccccc2)cc1 (centres undefined) | 32.2 µM | 15.8 µM
35 | CC(C)(C)C1=CC(O)(c2c3ccccc3c(C3(O)C=C(C(C)(C)C)C(=O)C(C(C)(C)C)=C3)c3ccccc23)C=C(C(C)(C)C)C1=O | > 100 µM | –
36 | N#Cc1c(NC(=S)Nc2ccccc2)sc2c1CCCC2 | > 100 µM | –
